In PubChem BioAssay AID588591 (National Center for Advancing Translational Sciences (NCATS), 2011):
Among all 390,000 compounds or so, about 4,700 (1.2%) were called active. Inconclusive means that the source gave no clear call. Such entries were picked first, then a sample of the others. Calls come from the whole dose curve; as a rule, active = well fitted inhibition curve with a large enough effect; inconclusive = small, poorly fitted or top-dose-only effect, or another doubt; inactive = no such curve, though single readings can be large or run the other way. Potencies of inconclusive entries are doubtful fits and often do not repeat.

The compounds below were run against DNA polymerase eta (Homo sapiens) (UniProt Q9Y253) (assay: qHTS for Inhibitors of Polymerase Eta). Details: recombinant Pol eta, fluorescent DNA replication assay; series mostly up to 114 µM.
Chain of UniProt Q9Y253 (Q9Y253 whole entry, looked up): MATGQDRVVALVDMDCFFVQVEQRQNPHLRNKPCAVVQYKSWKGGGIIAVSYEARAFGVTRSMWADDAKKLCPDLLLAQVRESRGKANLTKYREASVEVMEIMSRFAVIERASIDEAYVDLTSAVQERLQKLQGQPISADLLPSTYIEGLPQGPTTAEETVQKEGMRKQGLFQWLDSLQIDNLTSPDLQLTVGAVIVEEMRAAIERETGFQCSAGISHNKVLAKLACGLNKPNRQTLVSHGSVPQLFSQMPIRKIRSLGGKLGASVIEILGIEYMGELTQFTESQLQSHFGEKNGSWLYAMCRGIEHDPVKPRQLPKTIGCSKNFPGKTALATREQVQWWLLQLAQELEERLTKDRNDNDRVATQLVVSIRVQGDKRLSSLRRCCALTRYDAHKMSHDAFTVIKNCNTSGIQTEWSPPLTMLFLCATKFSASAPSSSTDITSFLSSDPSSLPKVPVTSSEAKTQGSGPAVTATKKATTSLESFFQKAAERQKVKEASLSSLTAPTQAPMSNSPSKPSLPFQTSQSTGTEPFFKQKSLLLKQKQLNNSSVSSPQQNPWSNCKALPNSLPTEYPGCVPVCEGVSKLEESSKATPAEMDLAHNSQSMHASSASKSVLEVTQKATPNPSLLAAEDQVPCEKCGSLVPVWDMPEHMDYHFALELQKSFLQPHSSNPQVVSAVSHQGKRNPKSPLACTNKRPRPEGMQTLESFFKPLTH
Procedure, shortened: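 Pol eta at 10 nM preincubated with compounds 15 min at room temperature; reaction started with fluorescent substrate (50 nM final) and read kinetically at 0 and 10 min.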
Potency is the fitted concentration of half-maximal effect; tags give direction and shape of the fitted curve.

Row | SMILES | Potency
1 | Cc1ccc(CCNS(=O)(=O)c2ccc3c(c2)NC(=O)C(C)C(=O)N3)cc1 (centres undefined) | inconclusive: 50.1 µM [inhibitor, partial curve]
2 | CCc1ccccc1NC(=O)CSc1ccsc1[N+](=O)[O-] | active: 31.6 µM
3 | O=C1CCCN2N=C(SCC(=O)Nc3nc4ccccc4s3)SC2=N1 | inactive
4 | Cc1cc(C)c(CN2C(=O)c3ccccc3S(=O)(=O)c3ccc(C(=O)OCC4CCCO4)cc32)c(C)c1 (centres undefined) | inactive
5 | CO[C@@]1(NC(=O)Cc2cccs2)C(=O)N2C(C(=O)O)=C(COC(N)=O)CS[C@@H]21 | inconclusive: 50.1 µM [inhibitor, partial curve, poor fit]
6 | CCCNC(=O)c1c(N)n(-c2ccc(S(N)(=O)=O)cc2)c2nc3ccccc3nc12 | inconclusive: 22.4 µM [inhibitor, partial curve, poor fit]
7 | Cn1c(NC(=O)/C=C/c2ccco2)cc(=O)n(C)c1=O | inconclusive: 44.7 µM [inhibitor, single point]
8 | CCCCCCN1C=CC(=C/C=C(\C#N)C(=O)OCC)C=C1 | inconclusive: 35.5 µM [inhibitor, partial curve, poor fit]
9 | COc1cc(OC)c(CN2CCN(c3ccc(F)cc3)CC2)cc1Br | inactive
10 | Cc1cccc(C(=O)OCc2cc(=O)n3nc(-c4cccs4)sc3n2)c1 | inconclusive: 89.1 µM [inhibitor, single point]
11 | COc1ccc2c(C)cc(SCC(=O)Nc3cc(C(N)=O)cc(C(N)=O)c3)nc2c1 | active: 50.1 µM
12 | Oc1cccc2ccc[n+](CC(O)Cn3c4ccccc4c4ccccc43)c12 (centres undefined) | inconclusive: 28.2 µM [inhibitor, partial curve]
13 | COC(=O)c1ccc(C)c(NC(=O)CSc2sc3c(O)cc(=O)[nH]c3c2C#N)c1 | active: 10 µM
14 | COc1ccc(NC(=O)c2cc3c(=O)n(C)c4ccccc4c3s2)cc1OC | inconclusive: 11.2 µM [inhibitor, full curve]
15 | COc1ccc(NC(=O)CN(c2cccc(C)c2C)S(=O)(=O)c2ccccc2)cc1OC | inactive
16 | Cc1cc(C=C2C(=O)c3ccccc3C2=O)c(C)n1-c1cccc(C(=O)O)c1 | active: 44.7 µM
17 | CSC1=N/C(=C\C=C\c2cccs2)C(=O)S1 | active: 17.8 µM
18 | CCc1cc(=O)oc2cc(C)c(CN3CCCCC3)c(O)c12 | active: 14.1 µM
19 | O=C(CCl)c1ccc2[nH]c(=O)oc2c1 | active: 44.7 µM
20 | CCOC(=O)C1(C)C=C(Nc2ccc(C)cc2)C(=O)N1c1ccccc1 (centres undefined) | inconclusive: 89.1 µM [inhibitor, partial curve, poor fit]
21 | COc1ccc(/C=C2\SC(=O)N=C2N)cc1 | inconclusive: 39.8 µM [inhibitor, single point]
22 | O=[N+]([O-])c1cccnc1Sc1ccccc1Cl | inconclusive: 79.4 µM [inhibitor, partial curve, poor fit]

Row | SMILES | Potency
23 | O=C1C(Cl)=C(N2CCN(c3ccccc3[N+](=O)[O-])CC2)C(=O)c2ccccc21 | inconclusive: 12.6 µM [inhibitor, full curve]
24 | COc1cccc2sc3cc(NCC[C@@H]4CCCN4C)ccc3c(=O)c12 | inconclusive: 50.1 µM [inhibitor, partial curve, poor fit]
25 | COc1ccc(C(=O)Nc2ccccc2C(=O)O)cc1NC(=O)C(c1ccccc1)c1ccccc1 | active: 89.1 µM
26 | COc1cccc(CN(Cc2ccco2)C(c2ccc(F)cc2)c2nnnn2C(C)(C)C)c1 (centres undefined) | inconclusive: 79.4 µM [inhibitor, partial curve, poor fit]
27 | Cc1nc(-c2ccc(C)c(N3CCN(C(=O)Nc4ccc(Br)cc4)CC3)c2)no1 | inactive
28 | O=C(NCc1ccccc1C(F)(F)F)C12CN(Cc3ccccc3)CC1C(c1ccc([N+](=O)[O-])cc1)=NO2 (centres undefined) | inconclusive: 100 µM [inhibitor, partial curve, poor fit]
29 | CCCCCCOc1ccc(/C(C)=N/NC2=NCCN2)cc1 | inconclusive: 22.4 µM [inhibitor, partial curve, poor fit]
30 | O=C(N/N=C/C(Br)=C/c1ccccc1)c1cc(-c2ccco2)[nH]n1 | inconclusive: 39.8 µM [inhibitor, partial curve, poor fit]
31 | Cc1ccc(CNC(=O)C(=O)NCC(c2cccs2)S(=O)(=O)c2cccs2)cc1 (centres undefined) | inconclusive: 79.4 µM [inhibitor, partial curve, poor fit]
32 | COc1ccc(Cc2nnc(SCC(=O)NCc3ccco3)o2)cc1 | inconclusive: 20 µM [inhibitor, partial curve, poor fit]
33 | Cc1cccc2c1-c1sc(C(=O)Nc3cccnc3)cc1CO2 | inconclusive: 44.7 µM [inhibitor, partial curve]
34 | COc1ccc(NC(=O)c2c(Cl)n(C)c3ccccc23)cc1 | inconclusive: 31.6 µM [inhibitor, single point]
35 | COc1cc(/C=C2/C(=O)NN(c3ccc(C)c(Cl)c3)C2=O)cc([N+](=O)[O-])c1O | active: 28.2 µM
36 | CC(=O)c1cccc(NC(=O)c2sc3nc4c(cc3c2N)CCCC4)c1 | active: 79.4 µM
37 | COc1ccc2c([N+](=O)[O-])c(Cl)[nH]c2c1 | active: 20 µM
38 | O=C(Cn1cncn1)N/N=C/c1c2ccccc2cc2ccccc12 | inconclusive: 35.5 µM [inhibitor, partial curve, poor fit]
39 | Cc1cccc(NC(=O)C2CC(=O)OC23CCCC3)c1 (centres undefined) | active: 25.1 µM
40 | O=C(Nc1sc2c(c1C(=O)O)CCC2)c1ccccc1 | active: 12.6 µM
41 | O=C(c1ccco1)N(CCC(c1ccccc1)c1ccco1)Cc1ccco1 (centres undefined) | active: 2.82 µM
42 | CS(=O)(=O)c1ccc(Cl)c(NC(=O)C2CC(=O)N(Cc3ccco3)C2)c1 (centres undefined) | inactive
43 | O=C(NCCc1ccccc1)c1cc2ncc(Br)cn2n1 | inconclusive: 11.2 µM [inhibitor, full curve, poor fit]
44 | O=C(CSc1n[nH]c(-c2ccccc2)n1)c1ccc(O)c(O)c1 | active: 39.8 µM
